Some of the results follow. No stated cut-off is given here; in the data, active = 3.2 or more and inactive = the rest. Only a few entries rise above the background.
How the values were obtained:
Experiment in all cases: enrichment score (SH2-bound / input frequency) (ratio); bacterial display of known human phosphotyrosine sites (pTyr-Var adds point mutants) read by sequencing; higher = stronger binding; tyrosines were phosphorylated by kinases first
Conditions in all cases: peptide library: pTyr-Var
SHP2 C-SH2 domain E139D = biological target: SHP2 C-SH2 domain E139D
[1] = biological target: SHP2 C-SH2 domain wild-type
SHP2 N-SH2 domain L43F = biological target: SHP2 N-SH2 domain L43F
SHP2 N-SH2 domain T42A = biological target: SHP2 N-SH2 domain T42A
SHP2 N-SH2 domain T52S = biological target: SHP2 N-SH2 domain T52S
[2] = biological target: SHP2 N-SH2 domain wild-type

Measured: enrichment score
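Further: displayed peptides selected on beads carrying the immobilized SH2 domain, with library peptides lacking any tyrosine serving as negative controls.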

B1: LDLR_Y828_Y828C (peptide)
chain: FDNPVCQKTTE
inactive: SHP2 C-SH2 domain E139D 0.877 | [1] 0.813 | SHP2 N-SH2 domain L43F 0.746 | SHP2 N-SH2 domain T42A 0.716 | SHP2 N-SH2 domain T52S 0.75 | [2] 0.808

B2: LDLR_Y845 (peptide)
chain: HNQDGYSYPSR
inactive: SHP2 C-SH2 domain E139D 0.765 | [1] 0.498 | SHP2 N-SH2 domain L43F 0.767 | SHP2 N-SH2 domain T42A 0.736 | SHP2 N-SH2 domain T52S 0.422 | [2] 0.625

B3: LDLR_Y845_G844D_YF (peptide)
chain: HNQDDYSFPSR
inactive: SHP2 C-SH2 domain E139D 0.521 | [1] 0.192 | SHP2 N-SH2 domain L43F 0.634 | SHP2 N-SH2 domain T42A 0.444 | SHP2 N-SH2 domain T52S 0.659 | [2] 0.431

B4: LDLR_Y845_P848L (peptide)
chain: HNQDGYSYLSR
inactive: SHP2 C-SH2 domain E139D 0.737 | [1] 1.1 | SHP2 N-SH2 domain L43F 0.469 | SHP2 N-SH2 domain T42A 0.665 | SHP2 N-SH2 domain T52S 0.535 | [2] 0.557

B5: LDLR_Y847_G844D (peptide)
chain: QDDYSYPSRQM
inactive: SHP2 C-SH2 domain E139D 0.714 | [1] 0.394 | SHP2 N-SH2 domain L43F 0.582 | SHP2 N-SH2 domain T42A 0.43 | SHP2 N-SH2 domain T52S 0.496 | [2] 0.498

B6: LDLR_Y847_G844D_YF (peptide)
chain: QDDFSYPSRQM
inactive: SHP2 C-SH2 domain E139D 0.73 | [1] 0.684 | SHP2 N-SH2 domain L43F 0.605 | SHP2 N-SH2 domain T42A 0.623 | SHP2 N-SH2 domain T52S 0.734 | [2] 0.502

B7: LDLR_Y847_P848L (peptide)
chain: QDGYSYLSRQM
inactive: SHP2 C-SH2 domain E139D 0.417 | [1] 0.845 | SHP2 N-SH2 domain L43F 0.716 | SHP2 N-SH2 domain T42A 0.848 | SHP2 N-SH2 domain T52S 0.527 | [2] 0.443

B8: LDLR_Y847_YF (peptide)
chain: QDGFSYPSRQM
inactive: SHP2 C-SH2 domain E139D 0.53 | [1] 0.558 | SHP2 N-SH2 domain L43F 0.66 | SHP2 N-SH2 domain T42A 0.395 | SHP2 N-SH2 domain T52S 0.592 | [2] 0.588

B9: LEF1_Y114_G113R_YF (peptide)
chain: SSFSRYIMMPN
inactive: SHP2 C-SH2 domain E139D 0.722 | [1] 0.598 | SHP2 N-SH2 domain L43F 0.672 | SHP2 N-SH2 domain T42A 0.655 | SHP2 N-SH2 domain T52S 0.697 | [2] 0.65

B10: LEMD2_Y122_P126S (peptide)
chain: SRGLAYPARSA
inactive: SHP2 C-SH2 domain E139D 0.459 | [1] 0.479 | SHP2 N-SH2 domain L43F 0.43 | SHP2 N-SH2 domain T42A 0.551 | SHP2 N-SH2 domain T52S 0.627 | [2] 0.666

B11: LEMD3_Y258_D260Y (peptide)
chain: SCRENYSYSEE
inactive: SHP2 C-SH2 domain E139D 0.619 | [1] 0.628 | SHP2 N-SH2 domain L43F 0.793 | SHP2 N-SH2 domain T42A 0.635 | SHP2 N-SH2 domain T52S 0.613 | [2] 1.04

B12: LENG1_Y96 (peptide)
chain: RGNKEYEEEKR
inactive: SHP2 C-SH2 domain E139D 0.46 | [1] 0.342 | SHP2 N-SH2 domain L43F 0.449 | SHP2 N-SH2 domain T42A 0.429 | SHP2 N-SH2 domain T52S 0.559 | [2] 0.579

B13: LENG1_Y96_E97K (peptide)
chain: RGNKEYKEEKR
inactive: SHP2 C-SH2 domain E139D 1.49 | [1] 1.24 | SHP2 N-SH2 domain L43F 1.23 | SHP2 N-SH2 domain T42A 0.712 | SHP2 N-SH2 domain T52S 1.39 | [2] 0.874

B14: LGALS3_Y221 (peptide)
chain: AHLLQYNHRVK
inactive: SHP2 C-SH2 domain E139D 1.55 | [1] 1.46 | SHP2 N-SH2 domain L43F 1.42 | SHP2 N-SH2 domain T42A 1.35 | SHP2 N-SH2 domain T52S 1.45 | [2] 1.71

B15: LGI1_Y21_L26R (peptide)
chain: LKRIAYFLCLR
inactive: SHP2 C-SH2 domain E139D 1.29 | [1] 1.03 | SHP2 N-SH2 domain L43F 0.988 | SHP2 N-SH2 domain T42A 1.02 | SHP2 N-SH2 domain T52S 1.04 | [2] 1.01

B16: LIG3_Y767_YF (peptide)
chain: KVNKIYFPDFI
inactive: SHP2 C-SH2 domain E139D 1.54 | [1] 1.53 | SHP2 N-SH2 domain L43F 1.48 | SHP2 N-SH2 domain T42A 1.35 | SHP2 N-SH2 domain T52S 1.41 | [2] 1.51

B17: LIG3_Y768 (peptide)
chain: VNKIYYPDFIV
inactive: SHP2 C-SH2 domain E139D 1.47 | [1] 1.37 | SHP2 N-SH2 domain L43F 2.04 | SHP2 N-SH2 domain T42A 2.39 | SHP2 N-SH2 domain T52S 2.47 | [2] 1.27

B18: LIG3_Y768_YF (peptide)
chain: VNKIFYPDFIV
inactive: SHP2 C-SH2 domain E139D 1.31 | [1] 1.28 | SHP2 N-SH2 domain L43F 1.38 | SHP2 N-SH2 domain T42A 1.34 | SHP2 N-SH2 domain T52S 1.42 | [2] 1.14

B19: LILRB4_Y360 (peptide)
chain: PQAVTYAKVKH
inactive: SHP2 N-SH2 domain L43F 1.78 | SHP2 N-SH2 domain T52S 1.87 | [2] 0.877
active: SHP2 C-SH2 domain E139D 4.25 | [1] 8.87 | SHP2 N-SH2 domain T42A 5.26

Reference: the supplement of paper PMC10369915
